Assay results from patent US20110319597A1 (CAPHALON AUSTRALIA, published 2011).

Legend:
[1] = biological target: T1, recombinant human TNFα (CytoLab) (human, UniProt P01375 fragment); experiment: ELISA on coated human TNFα
T1 construct: coated on the ELISA plate at 1 µg/ml; also called Tumour necrosis factor alpha

recombinant human TNFα = recombinant human TNFα (human, UniProt P01375 fragment); experiment: cell-based or functional assay

Row | A450 (AU) [1] [AU] | Standardized EC50, L929 neutralization assay (5-point) (recombinant human TNFα) [µg/mL] | Binder
1 | 0.174 | 1570 | TNFα dAb Fc variant Y49K (Fc fusion, name in Kabat numbering) DIQMTQSPSSLSASVGDRVTITCRASQAIDSYLHWYQQKPGKAPKLLIKSASNLETGVPSRFSGSGSGTDFTLTISSLLPEDFATYYCQQVVWRPFTFGQGTKVEIKRV[human IgG1 Fc with changes left out]
2 | 0.242 | 590 | TNFα dAb Fc variant Y49Q (Fc fusion, name in Kabat numbering) DIQMTQSPSSLSASVGDRVTITCRASQAIDSYLHWYQQKPGKAPKLLIQSASNLETGVPSRFSGSGSGTDFTLTISSLLPEDFATYYCQQVVWRPFTFGQGTKVEIKRV[human IgG1 Fc with changes left out]
3 | 1.15 | 13.2 | TNFα dAb Fc variant Y49S (Fc fusion, name in Kabat numbering) DIQMTQSPSSLSASVGDRVTITCRASQAIDSYLHWYQQKPGKAPKLLISSASNLETGVPSRFSGSGSGTDFTLTISSLLPEDFATYYCQQVVWRPFTFGQGTKVEIKRV[human IgG1 Fc with changes left out]
4 | 0.592 | 15.8 | TNFα dAb Fc variant Y49L (Fc fusion, name in Kabat numbering) DIQMTQSPSSLSASVGDRVTITCRASQAIDSYLHWYQQKPGKAPKLLILSASNLETGVPSRFSGSGSGTDFTLTISSLLPEDFATYYCQQVVWRPFTFGQGTKVEIKRV[human IgG1 Fc with changes left out]
